# Among all 43,000 compounds or so, about 200 (0.47%) were called active. Not shown: some 12% with an inconclusive outcome. Calls come from the whole dose curve; as a rule, active = well fitted cell-killing curve with a large enough effect; inconclusive = small, poorly fitted or top-dose-only effect, or effect the other way; inactive = flat fitted curve, though single readings scatter. Some of the results follow.
# Assay: Cell viability qHTS assay in S16 Pmp22-F2sN cells; note: nearly all actives have a fitted effect of over 65% in size
# Conditions: S16 Pmp22-F2sN Schwann cells (luciferase reporters placed in the Pmp22 gene) viability, CellTiter-Glo, 24 h; series mostly up to 57.5 µM; activity change, negative = cytotoxicity: at the top concentration
# How it was run: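 Luminescence from CellTiter-Glo, read by CCD camera after a 15 min room-temperature incubation, served as the viability signal. Reporter Schwann cells (S16 Pmp22-F2sN) had been treated with pin-transferred compounds for 24 h at 37C.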
# % is set by controls: 0 for no effect and ±100 for the full control effect; potency is the fitted concentration of half-maximal effect.
Compound,"activity change, negative = cytotoxicity",Potency
CCCNC(=O)CCNS(=O)(=O)c1ccc2c(c1)c(=O)n(C)c(=O)n2C,inactive: 2.9%,–
CCC(=O)N1CCc2cc(S(=O)(=O)NCCC(=O)Nc3ccc(C)cc3)ccc21,inactive: -7.67%,–
COc1cc(C(=O)n2nc(-c3ccco3)nc2NCc2ccc(Cl)cc2)cc(OC)c1OC,inactive: 1.6%,–
Cc1cccc(NCc2nc3ccccc3n2CCOc2ccccc2C)c1,inactive: -17.1%,–
CCC(=O)N1CCc2cc(S(=O)(=O)NC(CC(C)C)C(=O)Nc3cc(C)ccc3OC)ccc21 (stereo not given),inactive: -19%,–
CCC12CN3CC(C)(CN(C1)C3c1c[nH]c3ccccc13)C2=O (stereo not given),inactive: 0.707%,–
CC1=C(C(=O)Nc2ccc(C)cc2C)C(c2ccc(O)cc2)n2nnnc2N1 (stereo not given),inactive: -18.1%,–
COc1ccc(/C=C\c2onc(C)c2S(=O)(=O)N2CCC(C(=O)Nc3ccc(C)cc3C)CC2)cc1,inactive: 0.588%,–
CCc1ccc(NC(=O)CSC2=Nc3ccccc3C3=NC(CCC(=O)NCCc4ccccc4)C(=O)N23)cc1 (stereo not given),inactive: -19.2%,–
CCS(=O)(=O)c1ncc(N(Cc2ccco2)Cc2sccc2C)c(C(=O)Nc2ccc(C)cc2C)n1,inactive: 2.25%,–
CCCOc1ccc(C(=O)Nc2cccc(NC(=O)c3cccc(Cl)c3)c2)cc1,inactive: -0.834%,–
COc1ccc(-c2cc(C(F)(F)F)nc(SCC(=O)NCc3ccc(OC)c(OC)c3)n2)cc1,inactive: 4.78%,–
CCc1nnc2c(Nc3cccc(C(C)=O)c3)nc3ccccc3n12,inactive: 2.2%,–
CCCCc1nn2c(=O)cc(COC(=O)c3cccc(OC)c3)nc2s1,inactive: -21.2%,–
COc1ccccc1N(CC(=O)NCCSCc1ccccc1)S(C)(=O)=O,inactive: -1.93%,–
CCCCc1nn2c(=O)cc(COC(=O)COc3ccc(C)cc3)nc2s1,inactive: 15.2%,–
COc1ccc(NC(=O)CN2C(=O)COc3ccc(S(=O)(=O)Nc4ccccc4)cc32)cc1,inactive: -8.53%,–
CCOC(=O)CN1C(=O)c2ccccc2Sc2ncccc21,inactive: -2.41%,–
CCOc1ccc(C(=O)NCc2ccc3c(c2)CCN3C(=O)c2ccccc2)cc1,inactive: -17.9%,–
COc1ccc(-c2onc(C)c2C)cc1S(=O)(=O)NCc1ccco1,inactive: -8.49%,–
CCc1ccc(CNC(=O)c2ccc3c(c2)nc2n3CCC(C)C2)cc1 (stereo not given),inactive: -3.6%,–
COc1cccc(C(=O)Nc2cccc(OCc3cc(=O)n4cc(C)ccc4n3)c2)c1,inactive: 7.76%,–
CCOc1cc(C2c3c(oc4ccc(F)cc4c3=O)C(=O)N2Cc2ccc(C)cc2)ccc1O (stereo not given),inactive: -6.13%,–
COc1ccc(C2CC(=O)c3c([nH]c(C(=O)OCc4ccccc4)c3C)C2)cc1OC (stereo not given),inactive: -3.78%,–

Compound,"activity change, negative = cytotoxicity",Potency
CCCCNC(=O)CSc1nc2n[nH]c(C)c2c(=N)n1-c1ccccc1CC,inactive: -21.2%,–
O=C(COc1ccccc1F)Nc1nnc(S(=O)(=O)N2CCCCCC2)s1,inactive: -2.24%,–
O=C(NCc1ccc(Cl)cc1)C1CCCN(c2ncnc3onc(-c4ccc(F)cc4)c23)C1 (stereo not given),inactive: 6.84%,–
Cc1cccc(NC(=O)c2c(Br)sc3c2CCCC3)c1,inactive: -1.32%,–
COc1ccc(Nc2nnc(-c3ccc(C)c(S(=O)(=O)N4CCOCC4)c3)c3ccccc23)cc1,inactive: -19%,–
CCCCNC(=O)C1CCN(Cc2nc(-c3ccc(OC)c(OC)c3)oc2C)CC1,inactive: 19.4%,–
Cc1ccccc1Cc1c(C)nc2nc(SCC(=O)NC(C)c3ccccc3)nn2c1C (stereo not given),inactive: -1.7%,–
CCC1CN(C(=O)Nc2cccc3c2CCCC3)c2cc(C)ccc2O1 (stereo not given),inactive: 0.672%,–
CCOC(=O)c1c(C)oc2nc(C)nc(NCCCN3CCN(c4cccc(C)c4)C(C)C3)c12 (stereo not given),inactive: 0.962%,–
CCOc1ccc(-c2ccc(CO)o2)cc1N,inactive: 3.04%,–
CCc1ccc(C2c3c(n[nH]c3C)C(=O)N2c2ccc(C)cc2)cc1 (stereo not given),inactive: 7.97%,–
O=C(NC1CCCC1)c1ccc2c(c1)N(Cc1ccc(F)cc1)C(=O)c1ccccc1S2,inactive: -7.26%,–
Cc1ccc(CNC(=O)CN(c2cc(C)cc(C)c2)S(=O)(=O)c2c(C)[nH]c(=O)[nH]c2=O)cc1,inactive: 2.53%,–
Cc1ccc(N2CCN(C(=O)c3nn(C)c4c3CSc3ccccc3-4)CC2C)cc1 (stereo not given),inactive: 12.1%,–
COc1ccc(-c2noc(-c3ccccc3NC(=O)c3cc(OC)c(OC)c(OC)c3)n2)cc1,inactive: -0.281%,–
O=S(=O)(Nc1nc2n(n1)C(c1ccccc1)C=C(c1ccc(Cl)cc1)N2)c1ccccc1 (stereo not given),inactive: -0.158%,–
COc1ccc(NC(=O)C(Cc2ccccc2)n2cccc2)c(OC)c1 (stereo not given),inactive: -0.586%,–
CC(C)CCNC(=O)CSc1nc2ccsc2c(=O)n1Cc1ccccc1Cl,inactive: 1.05%,–
COc1ccc(CCNC(=O)C(=O)NCC(c2cccs2)S(=O)(=O)c2ccccc2)cc1 (stereo not given),inactive: 0.569%,–
Cc1ccc(SCC(=O)Nc2ccc3oc(-c4cccc(C)c4)nc3c2)cc1,inactive: 3.26%,–
Cc1ccc(Cl)cc1NC(=O)CCS(=O)(=O)c1ccc(Br)s1,inactive: 13%,–
CCOC(=O)c1noc2ncn(CC(=O)O)c(=O)c12,inactive: 22.7%,–
CCN1C(=O)CC(C(=O)Nc2ccc(OC)cc2)SC1=Nc1ccc(C)c(C)c1 (stereo not given),inactive: 7.64%,–
Cc1ccc(NC(=O)c2ccco2)c(OCc2cc(=O)n3cc(C)sc3n2)c1,inactive: -3.2%,–

Compound,"activity change, negative = cytotoxicity",Potency
COc1ccc(-n2c(=O)c3c4c(sc3n(Cc3cc(=O)n5c(C)cccc5n3)c2=O)CCC4)c(OC)c1,inactive: 3.37%,–
CCC1CN(C(=O)NCc2ccc(F)cc2)c2ccccc2O1 (stereo not given),inactive: 6.39%,–
Cc1ccc(OCC(=O)Nc2ccc3nc(SCC(=O)N4CCCC4)sc3c2)cc1C,inactive: 5.49%,–
Cc1ccc(Cn2c(=O)c3ccccc3n3c(-c4ccccc4)nnc23)cc1,inactive: 16.9%,–
CCc1ccc(CNC(=O)CSCc2cnn(-c3ccccc3)c2-n2cccc2)cc1,inactive: 10.9%,–
COc1ccc(C2CC(=O)N3CN(C4CCCCC4)CSC3=C2C#N)cc1 (stereo not given),inactive: 11.6%,–
CN(C)c1ccc(CNc2nc(-c3ccco3)nn2C(=O)c2cccc([N+](=O)[O-])c2)cc1,inactive: 11.1%,–
CCCn1c(=O)c2sccc2n2c(CCCC(=O)NCCOC)nnc12,inactive: 14.5%,–
COc1ccccc1NC(=O)CSc1ncc2c(n1)-c1cc(Cl)ccc1N(C)S2(=O)=O,inactive: -26.5%,–
Cc1nc(N2CCCC2)ncc1C(=O)Nc1ccccc1,inactive: 0.0583%,–
CC(C)CC(=O)Nc1ccc(C(=O)OCc2cc(=O)n3nc(C4CCCCC4)sc3n2)cc1,inactive: 1.86%,–
COc1cccc(CN2C(=O)c3ccccc3C2C(=O)NCCc2ccc(OC)c(OC)c2)c1 (stereo not given),inactive: 10.7%,–
Cc1cc(O)c(C(c2cccc(Cl)c2)N2CCN(c3ccccc3)CC2)c(=O)n1Cc1ccco1 (stereo not given),inactive: 3.27%,–
CN(C)c1ccc(CN(CC2CCCO2)C(=O)COc2ccc(Cl)cc2)cc1 (stereo not given),inactive: -0.212%,–
CCc1ccc(-n2c(C)nc3cc(C(=O)NCCc4ccccc4)ccc32)cc1,inactive: 0.543%,–
COCCCn1c(=N)c(C(=O)NC2CCCC2)cc2c(=O)n3ccccc3nc21,inactive: 9.3%,–
Cc1ccc(CCNC(=O)CCSCc2ccc(Cl)cc2)cc1,inactive: 6.81%,–
Cc1ccc(-c2nc3c4cnn(-c5cc(Cl)ccc5Cl)c4ncn3n2)cc1,inactive: 0.845%,–
CC(C)Cc1nn2c(=O)cc(COC(=O)c3ccccc3NC(=O)c3ccccc3)nc2s1,inactive: 8.35%,–
CC(=O)Nc1ccc(NC(=O)CN2C(=O)CN(C)C(=O)c3ccccc32)cc1,inactive: -1.74%,–
CCOc1ccc(-n2c(SCc3nc(-c4ccccc4C)no3)nnc2-c2ccccc2)cc1,inactive: -3.22%,–
CCCCC12CN3CC(C)(CN(C1)C3c1c(C)[nH]c(=O)[nH]c1=O)C2=O (stereo not given),inactive: 7.07%,–
COc1ccc(-c2cccc(NS(=O)(=O)c3cc(C)c(Cl)cc3C)c2)nn1,inactive: -1.95%,–
CCN(CCCNC(=O)c1nn(-c2ccc(OC)cc2)c(=O)c2c1c1ccccc1n2C)c1cccc(C)c1,inactive: 23.1%,–

Compound,"activity change, negative = cytotoxicity",Potency
Cc1cccc(Cn2c(C)c(C)c3cc(C(=O)NCc4ccc(C)o4)ccc32)c1,inactive: -25.7%,–
CCOc1ccc(NC(=O)CN2C(=O)C(c3ccccc3)=NC23CCCCCC3)cc1,inactive: -8.84%,–
CCOc1ccc(CN2C(=O)c3ccccc3Sc3ccc(C(=O)NCc4ccc(C)cc4)cc32)cc1,inactive: -2.62%,–
COc1cccc(CSc2nc3n(n2)C(c2ccccc2C)C(C(=O)Nc2ccccc2OC)=C(C)N3)c1 (stereo not given),inactive: 1.3%,–
Cc1nc2nc(SCC(=O)NC(C)c3ccccc3)nn2c(C)c1Cc1c(F)cccc1Cl (stereo not given),inactive: 3.81%,–
Cc1cccc(C(=O)Nc2ccc(N3CCC(CCN4CCOCC4)CC3)c(C(=O)O)c2)c1,inactive: -0.585%,–
O=C(Nc1ccc(S(=O)(=O)N2CCC(c3nc4ccccc4s3)CC2)cc1)c1ccccc1F,inactive: 9.29%,–
CCOC(=O)c1nc(Nc2cccc(C)c2)c2ccccc2n1,inactive: 7.04%,–
CCCCCOc1ccc(C(=O)N(Cc2ccccc2)C2CCS(=O)(=O)C2)cc1 (stereo not given),inactive: -2.67%,–
CCOc1ccc(CNC(=O)CCn2cccn2)cc1OC,inactive: 8.37%,–
CCN(C(=O)NCc1noc2ccccc12)c1cc(C)ccc1C,inactive: -0.508%,–
Cc1ccccc1-c1noc(CSc2nnc(Cc3ccccc3)n2-c2ccc(F)cc2)n1,inactive: -19.7%,–
CCC(C)n1c(=N)c(S(=O)(=O)c2ccc(C)cc2)cc2c(=O)n3cc(C)ccc3nc21 (stereo not given),inactive: -2.3%,–
CCOC(=O)N1CCc2c(sc(NCc3ccc(OC)c(Br)c3)c2C(=O)Nc2cc(OC)ccc2OC)C1,inactive: 22.7%,–
CCOC(=O)c1ccccc1NC(=O)N(Cc1ccc(C)cc1)Cc1cccn1-c1nnc(N2CCCC2=O)s1,inactive: 0.0247%,–
COc1cccc(NC(=O)Cn2c(=O)n(CCCC(=O)NCc3ccc4c(c3)OCO4)c(=O)c3ccccc32)c1,inactive: 17.8%,–
Cc1ccc(CNC(=O)c2c(-c3ccccc3F)noc2C)o1,inactive: -10.6%,–
CC(C)CCn1c(SCc2ccc(F)cc2Cl)nc2ccsc2c1=O,inactive: 17.6%,–
CC1=C(C(=O)Nc2ccccc2)C(c2ccc(C(=O)O)cc2)n2nc(SCC(=O)c3ccc(C)cc3)nc2N1 (stereo not given),inactive: -3.5%,–
CCc1ccc(-c2[nH]c3c(c2-c2c(-n4cccc4)n(C)c(=O)n(C)c2=O)c(=O)n(C)c(=O)n3C)cc1,inactive: 18.5%,–
CCN(CC)CCn1c(=N)n(CC(O)COc2ccccc2C)c2ccccc21 (stereo not given),–,active: 28.2 µM
Cc1ccc(Cn2c(=O)c3c(nc4n3CCN4c3cc(C)cc(C)c3)n(C)c2=O)cc1,inactive: 5.38%,–
Cc1ccc(-n2ncc3c(NNC(=O)c4ccccc4C)ncnc32)cc1,inactive: 9.87%,–

# From PubChem BioAssay AID1508642 (National Center for Advancing Translational Sciences (NCATS), 2021)
